The values that follow come from the supplement of paper PMC12217912.

B1: TEV protease; numbered along this chain (parent)
chain: MGESLFKGPRDYNPISSSICHLTNESDGHTTSLYGIGFGPFIITNKHLFRRNNGTLVVQSLHGVFKVKDTTTLQQHLVDGRDMIIIRMPKDFPPFPQKLKFREPQREERICLVTTNFQTKSMSSMVSDTSCTFPSGDGIFWKHWIQTKDGQCGSPLVSTRDGFIVGIHSASNFTNTNNYFTSVPKNFMELLTNQEAQQWVSGWRLNADSVLWGGHKVFMVKPEEPFQPVKEATQL

The list shows a part of the results. Sequences were assembled here from the parent chain. Inactive controls read about 0.05.

Variants of B1 are the subject of the experiment. In words: raw area under fraction-flipped curve 0-4 h after induction (AUC4h, not background-subtracted), DNA-recorder readout of cleavage of the substrate (dimensionless); higher = more cleavage of the substrate by the protease variant. Particulars: temperature: 34 °C; time window: 0-4 h after rhamnose induction. On the procedure:
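In vivo DNA recorder in E. coli TOP10(DE3) ΔrhaA at 34 °C. Each TEVp single-site mutant (parent TEVp 0) is paired with a single-site variant of the 7-mer TEVs (canonical ENLYFQ|S). The substrate sits between flexible linkers in a Bxb1-sfGFP-TEVs-SsrA fusion, so cleavage stabilises Bxb1 and speeds flipping of a recombination array, read by NGS. The value is the raw area under the fraction-flipped curve over 0-4 h after rhamnose induction (AUC4h), with ≥20 reads per time point. It is not background-subtracted; inactive controls average about 0.047.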
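Note: Bxb1 expression induced with 0.2% (w/v) L-rhamnose at OD600 near 0.5, cultures sampled hourly, flipped fraction per protease–substrate barcode pair counted by paired-end Illumina sequencing.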

Take MGESLFKGPRDYNPISSSICHLTNESDGHTTSLYGIGFGPFIITNKHLFRRNNGTLVVQSLHGVFKVKDTTTLQQHLVDGRDMIIIRMPKDFPPFPQKLKFREPQREERICLVTTNFQTKSMSSMVSDTSCTFPWGDGIFWKHWIQTKDGQCGSPLVSTRDGFIVGIHSASNFTNTNNYFTSVPKNFMELLTNQEAQQWVSGWRLNADSVLWGGHKVFMVKPEEPFQPVKEATQL [S135W]: the “area with substrate ENLAFQS” value amounted to 0.0575, the “area with substrate ENLDFQS” value came out at 0.0622, the “area with substrate ENLEFQS” value was 0.0496 and the “area with substrate ENLFFQS” value stood at 0.0583. For the same variant, the “area with substrate ENLHFQS” value stood at 0.0453, the “area with substrate ENLIFQS” value stood at 0.0621, the “area with substrate ENLKFQS” value is 0.0712 and the “area with substrate ENLLFQS” value is 0.0567. Also, the “area with substrate ENLNFQS” value is 0.0604, the “area with substrate ENLQFQS” value came out at 0.0546, the “area with substrate ENLRFQS” value was found to be 0.0407 and the “area with substrate ENLSFQS” value was 0.0602. Further, the “area with substrate ENLTFQS” value came to 0.0645, the “area with substrate ENLVFQS” value was 0.0601 and the “area with substrate ENLWFQS” value turned out to be 0.0566.

For MGESLFKGPRDYNPISSSICHLTNESDGHTTSLYGIGFGPFIITNKHLFRRNNGTLVVQSLHGVFKVKDTTTLQQHLVDGRDMIIIRMPKDFPPFPQKLKFREPQREERICLVTTNFQTKSMSSMVSDTSCTFPCGDGIFWKHWIQTKDGQCGSPLVSTRDGFIVGIHSASNFTNTNNYFTSVPKNFMELLTNQEAQQWVSGWRLNADSVLWGGHKVFMVKPEEPFQPVKEATQL [S135C], the “area with substrate ENLAFQS” value is 0.0609, the “area with substrate ENLCFQS” value was 0.049, the “area with substrate ENLDFQS” value came out at 0.0566 and the “area with substrate ENLFFQS” value came out at 0.0694. Besides, the “area with substrate ENLHFQS” value amounted to 0.0597, the “area with substrate ENLIFQS” value came out at 0.068, the “area with substrate ENLKFQS” value is 0.0659 and the “area with substrate ENLLFQS” value amounted to 0.0541. Also, the “area with substrate ENLNFQS” value turned out to be 0.0619, the “area with substrate ENLPFQS” value was determined as 0.0699, the “area with substrate ENLQFQS” value was found to be 0.0556 and the “area with substrate ENLRFQS” value came out at 0.0635. Moreover, the “area with substrate ENLSFQS” value was 0.0747, the “area with substrate ENLVFQS” value was 0.0564 and the “area with substrate ENLWFQS” value came out at 0.0545.

On to MGESLFKGPRDYNPISSSICHLTNESDGHTTSLYGIGFGPFIITNKHLFRRNNGTLVVQSLHGVFKVKDTTTLQQHLVDGRDMIIIRMPKDFPPFPQKLKFREPQREERICLVTTNFQTKSMSSMVSDTSCTFPSGDGIYWKHWIQTKDGQCGSPLVSTRDGFIVGIHSASNFTNTNNYFTSVPKNFMELLTNQEAQQWVSGWRLNADSVLWGGHKVFMVKPEEPFQPVKEATQL [F140Y], for which the “area with substrate ENLAFQS” value worked out at 0.0536, the “area with substrate ENLEFQS” value came out at 0.0678, the “area with substrate ENLFFQS” value is 0.0669 and the “area with substrate ENLIFQS” value amounted to 0.0601. Further, the “area with substrate ENLKFQS” value was 0.0766, the “area with substrate ENLNFQS” value was 0.0455, the “area with substrate ENLPFQS” value turned out to be 0.0658 and the “area with substrate ENLSFQS” value is 0.0665.

MGESLFKGPRDYNPISSSICHLTNESDGHTTSLYGIGFGPFIITNKHLFRRNNGTLVVQSLHGVFKVKDTTTLQQHLVDGRDMIIIRMPKDFPPFPQKLKFREPQREERICLVTTNFQTKSMSSMVSDTSCTFPSGDGIFEKHWIQTKDGQCGSPLVSTRDGFIVGIHSASNFTNTNNYFTSVPKNFMELLTNQEAQQWVSGWRLNADSVLWGGHKVFMVKPEEPFQPVKEATQL [W141E]: the “area with substrate ENLAFQS” value was 0.0321, the “area with substrate ENLCFQS” value was 0.0657, the “area with substrate ENLDFQS” value is 0.0608 and the “area with substrate ENLGFQS” value came out at 0.0586. The “area with substrate ENLHFQS” value was 0.0675, the “area with substrate ENLKFQS” value is 0.0458, the “area with substrate ENLPFQS” value was 0.043 and the “area with substrate ENLRFQS” value came out at 0.0475.

Regarding MGESLFKGPRDYNPISSSICHLTNESDGHTTSLYGIGFGPFIITNKHLFRRNNGTLVVQSLHGVFKVKDTTTLQQHLVDGRDMIIIRMPKDFPPFPQKLKFREPQREERICLVTTNFQTKSMSSMVSDTSCTFPSGDGIFWKHWIQTHDGQCGSPLVSTRDGFIVGIHSASNFTNTNNYFTSVPKNFMELLTNQEAQQWVSGWRLNADSVLWGGHKVFMVKPEEPFQPVKEATQL [K148H], the “area with substrate ENLAFQS” value turned out to be 0.0491, the “area with substrate ENLDFQS” value worked out at 0.0598, the “area with substrate ENLEFQS” value came to 0.0617 and the “area with substrate ENLFFQS” value was found to be 0.0747. The “area with substrate ENLHFQS” value came out at 0.0547, the “area with substrate ENLKFQS” value was 0.0624, the “area with substrate ENLNFQS” value came to 0.0694 and the “area with substrate ENLPFQS” value was found to be 0.0689. In addition, the “area with substrate ENLSFQS” value is 0.0672 and the “area with substrate ENLTFQS” value was found to be 0.0346.

Regarding MGESLFKGPRDYNPISSSICHLTNESDGHTTSLYGIGFGPFIITNKHLFRRNNGTLVVQSLHGVFKVKDTTTLQQHLVDGRDMIIIRMPKDFPPFPQKLKFREPQREERICLVTTNFQTKSMSSMVSDTSCTFPSGDGIFWKHWIQTVDGQCGSPLVSTRDGFIVGIHSASNFTNTNNYFTSVPKNFMELLTNQEAQQWVSGWRLNADSVLWGGHKVFMVKPEEPFQPVKEATQL [K148V], the “area with substrate ENLAFQS” value was 0.0553, the “area with substrate ENLCFQS” value was found to be 0.0771, the “area with substrate ENLDFQS” value worked out at 0.0672 and the “area with substrate ENLEFQS” value was 0.0673. Moreover, the “area with substrate ENLFFQS” value was 0.0962, the “area with substrate ENLHFQS” value came out at 0.0665, the “area with substrate ENLIFQS” value came out at 0.0896 and the “area with substrate ENLKFQS” value stood at 0.0695. For the same variant, the “area with substrate ENLLFQS” value stood at 0.0796, the “area with substrate ENLNFQS” value amounted to 0.065 and the “area with substrate ENLSFQS” value worked out at 0.0758.

On to MGESLFKGPRDYNPISSSICHLTNESDGHTTSLYGIGFGPFIITNKHLFRRNNGTLVVQSLHGVFKVKDTTTLQQHLVDGRDMIIIRMPKDFPPFPQKLKFREPQREERICLVTTNFQTKSMSSMVSDTSCTFPSGDGIFWKHWIQTKLGQCGSPLVSTRDGFIVGIHSASNFTNTNNYFTSVPKNFMELLTNQEAQQWVSGWRLNADSVLWGGHKVFMVKPEEPFQPVKEATQL [D149L], for which the “area with substrate ENLAFQS” value was 0.0549, the “area with substrate ENLDFQS” value was found to be 0.0545, the “area with substrate ENLFFQS” value amounted to 0.035 and the “area with substrate ENLHFQS” value is 0.0427. The “area with substrate ENLIFQS” value stood at 0.0552, the “area with substrate ENLKFQS” value was 0.0713, the “area with substrate ENLMFQS” value amounted to 0.0896 and the “area with substrate ENLNFQS” value was determined as 0.0644. Moreover, the “area with substrate ENLPFQS” value is 0.0605, the “area with substrate ENLSFQS” value stood at 0.051, the “area with substrate ENLTFQS” value stood at 0.075 and the “area with substrate ENLVFQS” value worked out at 0.0727. Moreover, the “area with substrate ENLWFQS” value was determined as 0.0609.

On to MGESLFKGPRDYNPISSSICHLTNESDGHTTSLYGIGFGPFIITNKHLFRRNNGTLVVQSLHGVFKVKDTTTLQQHLVDGRDMIIIRMPKDFPPFPQKLKFREPQREERICLVTTNFQTKSMSSMVSDTSCTFPSGDGIFWKHWMQTKDGQCGSPLVSTRDGFIVGIHSASNFTNTNNYFTSVPKNFMELLTNQEAQQWVSGWRLNADSVLWGGHKVFMVKPEEPFQPVKEATQL [I145M], for which the “area with substrate ENLAFQS” value stood at 0.0729, the “area with substrate ENLCFQS” value worked out at 0.0781, the “area with substrate ENLDFQS” value was 0.0533 and the “area with substrate ENLEFQS” value worked out at 0.0696. Further, the “area with substrate ENLFFQS” value was 0.0761, the “area with substrate ENLHFQS” value came to 0.06, the “area with substrate ENLIFQS” value came out at 0.0722 and the “area with substrate ENLLFQS” value was determined as 0.0688. In addition, the “area with substrate ENLNFQS” value was 0.0499, the “area with substrate ENLPFQS” value is 0.0533, the “area with substrate ENLQFQS” value stood at 0.0583 and the “area with substrate ENLRFQS” value came out at 0.0787. The “area with substrate ENLSFQS” value came to 0.0596.

For the variant MGESLFKGPRDYNPISSSICHLTNESDGHTTSLYGIGFGPFIITNKHLFRRNNGTLVVQSLHGVFKVKDTTTLQQHLVDGRDMIIIRMPKDFPPFPQKLKFREPQREERICLVTTNFQTKSMSSMVSDTSCTFPSGDGIFWKHWIATKDGQCGSPLVSTRDGFIVGIHSASNFTNTNNYFTSVPKNFMELLTNQEAQQWVSGWRLNADSVLWGGHKVFMVKPEEPFQPVKEATQL [Q146A], the “area with substrate ENLAFQS” value is 0.0521, the “area with substrate ENLDFQS” value is 0.0516, the “area with substrate ENLEFQS” value turned out to be 0.0618 and the “area with substrate ENLFFQS” value came out at 0.114. Moreover, the “area with substrate ENLHFQS” value is 0.07, the “area with substrate ENLIFQS” value was 0.089, the “area with substrate ENLKFQS” value was 0.0734 and the “area with substrate ENLLFQS” value worked out at 0.0758. Further, the “area with substrate ENLMFQS” value was found to be 0.0949, the “area with substrate ENLNFQS” value is 0.0653, the “area with substrate ENLPFQS” value came out at 0.0414 and the “area with substrate ENLQFQS” value stood at 0.063. Moreover, the “area with substrate ENLRFQS” value came to 0.12, the “area with substrate ENLTFQS” value came out at 0.0697 and the “area with substrate ENLVFQS” value worked out at 0.0928.
